Experimental findings from patent publication US6534546B1 (Chugai Seiyaku Kabushiki Kaisha, priority 1994, dated 2003) are described below.

Where a name gives a salt, the structure may show the parent alone. Read-outs that look alike come from different tables or passages of the source.

The term IC50 denotes the concentration that gives 50% inhibition.

The target in assay [1] is T1, N-cNOS (Type 1) (Rattus norvegicus, UniProt P29476). To be noted: for Ratio of IC50 values E-cNOS/N-cNOS / Ratio of IC50 values iNOS/N-cNOS: index of selectivity; for N-cNOS inhibitory potency compared with the existing NOS inhibitors (L-MIN) / selectivity for N-cNOS compared to E-cNOS, compared with the existing NOS inhibitors (L-EIN): conclusion from Tables 49, 50 and 51.

In assay [2] the target is T1, N-cNOS (Type 1). Kind of assay: biochemical.

In the case of `CSC(=N)Nc1cccc(C(C)(C)N)c1.Cl.Cl` [Example 5, N-(1-methyl-1-(3-(S-methylisothioureido)phenyl)ethyl)amine dihydrochloride], in assay [1], the “Ratio of IC50 values E-cNOS/N-cNOS” value worked out at 18.3 and the “Ratio of IC50 values iNOS/N-cNOS” value is on record as 19.2. The compound further returned an IC50 in assay [2] of 23.4 nM.

With `CC(C)(N)c1cccc(NC(N)=N[N+](=O)[O-])c1.Cl` [Example 7, N-(1-methyl-1-(3-(N′-nitroguanidino)phenyl)ethyl)amine hydrochloride], in assay [1], the “Ratio of IC50 values E-cNOS/N-cNOS” value stood at 5.6 and the “Ratio of IC50 values iNOS/N-cNOS” value is recorded as 279.4. In assay [2], half-maximal inhibition (IC50) required 7.6 nM.

On to `CSC(=N)Nc1cccc(C(C)N)c1.Cl.Cl` (stereo not drawn) [Example 12, N-(1-(3-(S-methylisothioureido)phenyl)ethyl)amine dihydrochloride], for which, in assay [1], the “Ratio of IC50 values E-cNOS/N-cNOS” value is on record as 37.9 and the “Ratio of IC50 values iNOS/N-cNOS” value turned out to be 16.9. Further, it took 14.2 nM to reach half-maximal inhibition in assay [2] (IC50).

Regarding `CC(N)c1cccc(NC(N)=N[N+](=O)[O-])c1.Cl` (stereo not drawn) [Example 14, N-(1-(3-(N′-nitroguanidino)phenyl)ethyl)amine hydrochloride], in assay [1], the “Ratio of IC50 values iNOS/N-cNOS” value is 623.9. In assay [2], this compound displayed an IC50 of 5.9 nM.

Take `CCC(N)c1cccc(NC(=N)SC)c1.Cl.Cl` (stereo not drawn) [Example 19, N-(1-(3-(S-methylisothioureido)phenyl)propyl)amine dihydrochloride]: in assay [1], the “Ratio of IC50 values iNOS/N-cNOS” value is given as 27.2. This compound had a half-inhibitory concentration (IC50) in assay [2] of 88.4 nM.

Take `CCC(N)c1cccc(NC(N)=N[N+](=O)[O-])c1.Cl` (stereo not drawn) [Example 21, N-(1-(3-(N′-nitroguanidino)phenyl)propyl)amine hydrochloride]: the “Ratio of IC50 values iNOS/N-cNOS” value in assay [1] is on record as 441.7. In addition, the midpoint of inhibition in assay [2], the IC50, lay at 5.9 nM.

As for `CSC(=N)Nc1cccc(CN)c1.Cl.Cl` [Example 26, N-(3-(S-methylisothioureido)phenylmethyl)amine dihydrochloride], in assay [1], the “Ratio of IC50 values E-cNOS/N-cNOS” value is given as 20.6 and the “Ratio of IC50 values iNOS/N-cNOS” value is 64.4. Moreover, the IC50 in assay [2] was determined as 20.9 nM.

On to `CCSC(=N)Nc1cccc(CN)c1.Cl.Cl` [Example 28, N-(3-(S-ethylisothioureido)phenylmethyl)amine dihydrochloride], for which, in assay [1], the “N-cNOS inhibitory potency compared with the existing NOS inhibitors (L-MIN)” value was “more potent in inhibiting N-cNOS than L-MIN” and the “Ratio of IC50 values iNOS/N-cNOS” value turned out to be 5.9. The compound further displayed a half-maximal inhibitory concentration (IC50) in assay [2] of 5.5 nM.

Compound `N=C(Nc1cccc(CN)c1)SCCF` [Example 30, N-(3-(S-(2-fluoroethyl)isothioureido)phenylmethyl)amine dihydrochloride] gave a half-inhibitory concentration (IC50) in assay [2] of 163 nM.

Take `N=C(Nc1cccc(CN)c1)N[N+](=O)[O-]` [Example 34, N-(3-(N′-nitroguanidino)phenylmethyl)amine]: the “Ratio of IC50 values iNOS/N-cNOS” value in assay [1] turned out to be 24.1. Also, the half-maximal inhibitory concentration (IC50) in assay [2] was 281 nM.

Turning to `CN(C)Cc1cccc(NC(N)=N[N+](=O)[O-])c1` [Example 39, N-(3-(N′-nitroguanidino)phenylmethyl)dimethylamine acetate], inhibition in assay [2] was half-maximal at 116 nM (IC50).

`CSC(=N)Nc1cccc(CN(C)C)c1` [Example 41, N-(3-(S-methylisothioureido)phenylmethyl)dimethylamine mononitrate monohydrochloride]: in assay [2], the IC50 came out at 121 nM.

In the case of `CCSC(=N)Nc1cccc(CNC)c1.Cl.Cl` [Example 47, N-(3-(S-ethylisothioureido)phenylmethyl)methylamine dihydrochloride], the “Ratio of IC50 values E-cNOS/N-cNOS” value in assay [1] is listed as 8.3. In assay [2], this compound yielded an IC50 of 8.8 nM.

For the compound `CSC(=N)Nc1ccc(CCN)cc1.Cl.Cl` [Example 52, N-(4-(S-methylisothioureido)phenylethyl)amine dihydrochloride], in assay [1], the “Ratio of IC50 values E-cNOS/N-cNOS” value is 13.7 and the “Ratio of IC50 values iNOS/N-cNOS” value turned out to be 78.4. Further, the IC50 in assay [2] is 35.2 nM.

Turning to `N=C(Nc1ccc(CCN)cc1)N[N+](=O)[O-]` [Example 54, N-(4-(N′-nitroguanidino)phenylethyl)amine], the “Ratio of IC50 values iNOS/N-cNOS” value in assay [1] was found to be 75.0. Also, the midpoint of inhibition in assay [2], the IC50, lay at 67 nM.

For the compound `CSC(=N)Nc1cccc(CCN)c1.Cl.Cl` [Example 60, N-(3-(S-methylisothioureido)phenylethyl)amine dihydrochloride], the “Ratio of IC50 values iNOS/N-cNOS” value in assay [1] worked out at 39.5. The same compound gave an IC50 in assay [2] of 171 nM.

In the case of `CCSC(=N)Nc1cccc(C(C)(C)N)c1.Cl.Cl` [Example 96, N-(1-methyl-1-(3-(S-ethylisothioureido)phenyl)ethyl)amine dihydrochloride], in assay [1], the “N-cNOS inhibitory potency compared with the existing NOS inhibitors (L-MIN)” value is on record as “more potent in inhibiting N-cNOS than L-MIN”; the “selectivity for N-cNOS compared to E-cNOS, compared with the existing NOS inhibitors (L-EIN)” value is recorded as “more selective inhibitory effect on N-cNOS than L-EIN”; the “Ratio of IC50 values E-cNOS/N-cNOS” value worked out at 94.4; the “Ratio of IC50 values iNOS/N-cNOS” value worked out at 13.6. This compound also yielded an IC50 in assay [2] of 2.1 nM.

For `CCSC(=N)Nc1ccc(CCN)cc1.Cl.Cl` [Example 104, N-(4-(S-ethylisothioureido)phenylethyl)amine dihydrochloride], in assay [1], the “N-cNOS inhibitory potency compared with the existing NOS inhibitors (L-MIN)” value was “more potent in inhibiting N-cNOS than L-MIN”, the “Ratio of IC50 values E-cNOS/N-cNOS” value came out at 22.7 and the “Ratio of IC50 values iNOS/N-cNOS” value is on record as 16.6. In assay [2], 5.2 nM corresponded to half-maximal inhibition (IC50).

The compound `CNC(C)c1cccc(NC(=N)SC)c1` (stereo not drawn) [Example 110, N-(1-(3-(S-methylisothioureido)phenyl)ethyl)methylamine dihydrochloride] showed an IC50 in assay [2] of 58.1 nM.

In the case of `CCSC(=N)Nc1cccc(C(C)NC)c1` (stereo not drawn) [Example 112, N-(1-(3-(S-ethylisothiourido)phenyl)ethyl)methylamine dihydrochloride], in assay [2], the 50% inhibitory concentration (IC50) amounted to 10.8 nM.

Turning to `CCSC(=N)Nc1ccc(OC)c(CN)c1` [Example 122, N-(5-(S-ethylisothioureido)-2-methoxyphenylmethyl)amine dihydrochloride], the midpoint of inhibition in assay [2], the IC50, lay at 3.8 nM.

In the case of `CCSC(=N)Nc1cccc(CN)c1C.Cl.Cl` [Example 131, N-(3-(S-ethylisothioureido)-2-methylphenylmethyl)amine dihydrochloride], in assay [1], the “N-cNOS inhibitory potency compared with the existing NOS inhibitors (L-MIN)” value is reported as “more potent in inhibiting N-cNOS than L-MIN”; the “selectivity for N-cNOS compared to E-cNOS, compared with the existing NOS inhibitors (L-EIN)” value is listed as “more selective inhibitory effect on N-cNOS than L-EIN”; the “Ratio of IC50 values E-cNOS/N-cNOS” value was found to be 106.9; the “Ratio of IC50 values iNOS/N-cNOS” value stood at 17.4. The concentration for half-maximal inhibition (IC50) in assay [2] worked out at 4.5 nM.

For `CCSC(=N)Nc1cccc(CN)c1Cl.Cl.Cl` [Example 137, N-(2-chloro-3-(S-ethylisothioureido)phenylmethyl)amine dihydrochloride], the “Ratio of IC50 values E-cNOS/N-cNOS” value in assay [1] is 68.3. In assay [2], this compound yielded an IC50 of 7.1 nM.

For the compound `CSC(=N)Nc1cccc(C2(N)CCCC2)c1.Cl.Cl` [Example 151, N-(1-(3-(S-methylisothioureido)phenyl)cyclopentyl)amine dihydrochloride], the “Ratio of IC50 values E-cNOS/N-cNOS” value in assay [1] turned out to be 7.0. This compound showed a 50% inhibitory concentration (IC50) in assay [2] of 37.6 nM.

Turning to `CCSC(=N)Nc1cccc(C2(N)CCCC2)c1.Cl.Cl` [Example 153, N-(1-(3-(S-ethylisothioureido)phenyl)cyclopentyl)amine dihydrochloride], the “Ratio of IC50 values E-cNOS/N-cNOS” value in assay [1] was 19.0. Besides, the concentration for half-maximal inhibition (IC50) in assay [2] came out at 22.2 nM.

`CSC(=N)Nc1cccc(C2(N)CCC2)c1.Cl.Cl` [Example 160, N-(1-(3-(S-methylisothioureido)phenyl)cyclobutyl)amine dihydrochloride]: the “Ratio of IC50 values E-cNOS/N-cNOS” value in assay [1] is on record as 13.0. Besides, the IC50 in assay [2] was 36.6 nM.

As for `CCSC(=N)Nc1cccc(C2(N)CCC2)c1.Cl.Cl` [Example 162, N-(1-(3-(S-ethylisothioureido)phenyl)cyclobutyl)amine dihydrochloride], the “Ratio of IC50 values E-cNOS/N-cNOS” value in assay [1] was 72.9. This compound showed an IC50 in assay [2] of 7.9 nM.

For the compound `CCSC(=N)Nc1cccc(C2(N)CC2)c1.Cl.Cl` [Example 167, N-(1-(3-(S-ethylisothioureido)phenyl)cyclopropyl)amine dihydrochloride], the “Ratio of IC50 values E-cNOS/N-cNOS” value in assay [1] was 27.5. In addition, inhibition in assay [2] was half-maximal at 13.3 nM (IC50).

In the case of `Cl.NC(=N[N+](=O)[O-])Nc1cccc(C2(N)CCCC2)c1` [Example 171, N-(1-(3-(N′-nitroguanidino)phenyl)cyclopentyl)amine hydrochloride], in assay [1], the “N-cNOS inhibitory potency compared with the existing NOS inhibitors (L-MIN)” value is on record as “more potent in inhibiting N-cNOS than L-MIN” and the “Ratio of IC50 values E-cNOS/N-cNOS” value is 5.8. In assay [2], this compound came in with an IC50 of 5 nM.

On to `N=C(Nc1cccc(C2(N)CCC2)c1)N[N+](=O)[O-]` [Example 173, N-(1-(3-(N′-nitroguanidino)phenyl)cyclobutyl)amine hydrochoride], for which the IC50 in assay [2] came to 8.2 nM.

In the case of `CCN=C(N)Nc1ccc(OCc2ccccc2)c(CN)c1` [Example 339, N-(2-benzyloxy-5-(N′-ethylguanidino)phenylmethyl)amine dihydrochloride], in assay [2], it took 281 nM to reach half-maximal inhibition (IC50).

As for `CCN=C(N)Nc1ccc(CC)c(CN)c1.Cl.Cl` [Example 466, N-(2-ethyl-5-(N′-ethylguanidino)phenylmethyl)amine dihydrochloride], in assay [1], the “selectivity for N-cNOS compared to E-cNOS, compared with the existing NOS inhibitors (L-EIN)” value was “more selective inhibitory effect on N-cNOS than L-EIN”.

For `CCN=C(N)Nc1ccc(C)c(CN)c1.Cl.Cl` [Example 473, N-(5-(N′-ethylguanidino)-2-methylphenylmethyl)amine dihydrochloride], in assay [1], the “selectivity for N-cNOS compared to E-cNOS, compared with the existing NOS inhibitors (L-EIN)” value is given as “more selective inhibitory effect on N-cNOS than L-EIN”.

In the case of `CCSC(N)=NCCC[C@H](N)C(=O)O` [L-EIN, S-ethyl-L-thiocitrulline, reference compound], the half-maximal inhibitory concentration (IC50) in assay [1] (read-out: IC50 value, N-cNOS (Type 1), mean of one to four independent experiments, crude enzyme, 100 nM L-[3H]arginine) stood at 8.4 nM.

Take `CSC(=N)NCCC[C@H](N)C(=O)O` [L-MIN, S-methyl-L-thiocitrulline, reference compound]: in assay [1], the “N-cNOS inhibitory potency compared with the existing NOS inhibitors (L-MIN)” value is “the strongest N-cNOS inhibitory activity in the existing NOS inhibitors”, the “Ratio of IC50 values E-cNOS/N-cNOS” value is reported as 26.7 and the “Ratio of IC50 values iNOS/N-cNOS” value turned out to be 43.4.
